Laboratory results from the supplement of paper PMC10126150.
Values marked as one replicate rest on one cluster of the flow cell; about a third of the high ones do not repeat.

System: ATP
Assay: switch fluorescence ratio, 500 uM ATP over buffer (Cy3 cluster intensity, sum of 5 cycles each) (fold (ratio)); higher = stronger signal-on switching upon ATP binding; sequences stand for … in TCGTCGGCAGCGTCAGATGTGTATAAGAGACAGTTTTTTTTTTTTTTTTTTTTTTTTT…TC
Details: aptamer strand: ATP DNA aptamer (quencher-CACCTGGGGGAGTATTGCGGAGGAAGG + anchor), 100 nM annealed; ATP concentration: 500 uM; one replicate
Summary of the method: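 Clusters carrying Cy3-labelled switching strands on a modified Illumina MiSeq flow-cell were annealed to 100 nM quencher-labelled ATP aptamer and imaged in selection buffer. They were imaged again after 15 min with 500 uM ATP at 22 °C, over five buffer/ATP cycles with NaOH stripping and re-annealing in between. For each cluster, the fluorescence ratio is the summed Cy3 intensity of the target cycles divided by that of the buffer cycles, averaged per switch-domain sequence. Clusters outside 100-1000 RFU were left out.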
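Further: ATP exposure 15 min at 22 °C before imaging.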

| Sequence | switch fluorescence ratio |
| --- | --- |
| TTCGGCAT | 1.02 |
| GAGTCCATGT | 0.978 |
| CGGGGGATCG | 1.02 |
| TTAGGTAATC | 0.962 |
| ATAATACGTT | 1.04 |
| CCCAACTAAG | 1 |
| TCTAGAAAGG | 0.975 |
| CGCTTCGGGC | 1.01 |
| AGTTCAATAT | 1.04 |
| CACCGGACGT | 1.28 |
| GTTCCATAGT | 1.02 |
| GCTGTAATGA | 1.02 |
| CCAGAAAAAA | 1.01 |
| GGTTGGTCCA | 1.04 |
| GTAAGATTGG | 0.971 |
| TACGAGGCGA | 2.08 |
| AAAGCCACTT | 1.03 |
| GGACCACCGA | 1.05 |
| ATTGATAAGA | 1.04 |
| GTCTGGTCGG | 0.998 |
| CCCACTATTA | 0.983 |
| AGCGTGCGTG | 0.988 |

| Sequence | switch fluorescence ratio |
| --- | --- |
| CCACGTTTAG | 0.991 |
| ATCCCATATA | 1.04 |
| TAACGACAAA | 1.04 |
| AGGTCTTTAT | 0.963 |
| GCATGGACAA | 0.989 |
| AACATACCTG | 1.14 |
| GCAAAAAGGG | 1.01 |
| CGCGGAAAGG | 1.02 |
| AAACAGCTCT | 1.04 |
| GTTCAGCGGT | 1.03 |
| TTCGTATGG | 0.997 |
| GTTTATAGT | 1 |
| CAAGGGACAA | 1.02 |
| TCGAATTATT | 0.964 |
| TGGGCATTTC | 4.25 |
| GCCGTAGTTT | 1.03 |
| TCAATTCACA | 1.01 |
| GGGAGCGACG | 0.971 |
| ATAGCTGGAC | 1.09 |
| GATACCAACT | 1.06 |
| AGAGAAACAC | 0.997 |
| ATTGTCTATG | 0.964 |

| Sequence | switch fluorescence ratio |
| --- | --- |
| CTATAACCAT | 0.995 |
| GAATTGCTTT | 1.03 |
| AGCATTCCCC | 1.06 |
| AGCTAGGGAC | 1.06 |
| CCGAGGTGGT | 1.46 |
| CGGCCGACAC | 1.06 |
| CAAAGTCCGC | 1.28 |
| GGTCTGCAGA | 1.02 |
| AAGCGGGTG | 1.02 |
| GATGGACCGC | 1.05 |
| CCCGTCGGCG | 1 |
| GCGCTTATCT | 1.05 |
| AAGCGTAGGG | 0.983 |
| CTTACGTTTC | 1.06 |
| TCAAATGGAG | 1.03 |
| CGTATGACGA | 0.994 |
| TCCATGATGA | 1.01 |
| TGTCACCG | 0.974 |
| CTGAATAAGA | 0.993 |
| TGACTCTGCG | 1.1 |
